# According to PubChem BioAssay (NCATS):
# Where “and” joins values, the source holds several entries; their conditions need not be identical. Equal values may be shown once. This is one part of the list. Further columns of the screen follow, without active or inactive calls. For part of these data: Compounds called inactive in the main read-out are mostly missing here. For part of these data: Words in brackets tell the shape of the fitted curve; partial curves, single points and poor fits give uncertain potencies.
# Experiments:
# [1] = qHTS Assay for Lipid Storage Modulators (AID 1519); details: Drosophila S3 cells, BODIPY lipid droplet/cell ratio, laser cytometry, cells loaded with oleic acid
# How it was run: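 Cells seeded at 5,000 per well were treated with compounds over a concentration series and loaded with oleic acid (400 uM, as added). Lipid droplet fluorescence (488 nm excitation, 500-530 nm channel) was read by laser-scanning cytometry and normalized to 20 uM Triacsin C.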
# [2] = qHTS assay for small molecule antagonists of androgen receptor signaling (AID 588516); details: AR-UAS-bla HEK293, beta-lactamase ratio, antagonist mode, 16 h
# How it was run: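 Antagonist mode: inhibition of R1881-stimulated (10 nM final) bla reporter in GeneBLAzer AR HEK 293 cells, 16 h at 37C, compounds titrated. IC50 and efficacy from Hill-equation fits of 405/460–530 nm FRET ratios.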
# [3] = qHTS assay for small molecule antagonists of glucocorticoid receptor signaling (AID 588533); details: HeLa MMTV-bla, GRE beta-lactamase ratio, antagonist mode, 18 h; measured here: W530 channel AC50;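 also: cells stimulated with 2 nM dexamethasone as agonist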
# [4] = qHTS assay for small molecule antagonists of peroxisome proliferator-activated receptor delta signaling (AID 588535); details: HEK293T PPARd-UAS-bla, beta-lactamase FRET ratio, 18 h; 460 nm channel;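 also: cells co-treated with a PPAR-delta agonist as stimulator during compound exposure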
# How it was run: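 Beta-lactamase reporter read-out (405 nm excitation, 460/530 nm emission) after CCF4 loading for 2 hrs at RT. HEK293T PPAR-delta-UAS-bla cells, 2% charcoal/dextran FBS, compounds for 18 hrs at 37 C. Hill fit gave IC50 and efficacy.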
# [5] = qHTS assay for small molecule antagonists of peroxisome proliferator-activated receptor gamma signaling (AID 588537); details: HEK293 PPARg-UAS-bla, beta-lactamase ratio, antagonist mode; measured here: W460 blue channel
# How it was run: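 Read-out: CCF4 fluorescence (ex 405, em 460/530 nm) after 2 h at RT. Cells were HEK293 carrying a UAS-bla reporter and treated 16 h at 37 C with compound plus rosiglitazone (50 nM final). Normalized to rosiglitazone and DMSO.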
# [6] = qHTS assay for small molecule antagonists of vitamin D receptor signaling (AID 588541); details: HEK293T VDR-UAS-bla, beta-lactamase ratio, antagonist mode; measured here: W460 blue channel (cell viability)
# [7] = qHTS assay for small molecule agonists of retinoid X receptor alpha signaling (AID 588544); details: HEK293T RXRa-UAS-bla, beta-lactamase reporter, 18 h; 530 nm emission
# [8] = qHTS assay for small molecule antagonists of retinoid X receptor alpha signaling (AID 588546); details: HEK293T RXRa-UAS-bla, beta-lactamase ratio, antagonist mode; measured here: W530 green channel, cytotoxicity proxy;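 also: cells stimulated with 9-cis-retinoic acid as agonist; % is scaled to controls: 0 for no effect and ±100 for the full control effect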
# How it was run: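 Beta-lactamase reporter inhibition, read as CCF4 fluorescence ratio (ex 405, em 460/530 nm) after 2 h at RT. HEK293T UAS-bla cells, 2500/well, were stimulated with 9-cis-RA at 500 or 100 nM final alongside test compound for 18 h at 37 C.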
# [9] = S16 Schwann cell PMP22 intronic element beta-lactamase assay (AID 624044); details: S16 rat Schwann cells, PMP22 element beta-lactamase FRET, 24 h; also: nearly all actives have a fitted effect of over 15% in size
# How it was run: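 Beta-lactamase reporter under a PMP22 intronic regulatory element in stable S16 rat Schwann cells; 24 h compound exposure. 460 nm blue signal normalized between DMSO (0%) and potassium clavulanate, with 535 nm FRET tracking viability; curves classed by r2 and response.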
# [10] = A High-Content qHTS Against Drug Library for the Identification of Small Molecules that Inhibit DYT1 Early Onset Primary Dystonia-Associated Cell Pathology (AID 1645839); details: HEK293 Flp-In EGFP-delE TorsinA, punctate imaging, 48 h; measured here: cell count cytotoxicity
# How it was run: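 Cells were seeded and left for 24 h, then dosed with compound alongside tetracycline induction of mutant EGFP-TorsinA. They were incubated for 48 h, fixed in 4% paraformaldehyde, permeabilized and imaged for mislocalization (%pathology) and cell count.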
# [11] = qHTS drug screen for cell cycle checkpoint inhibitors in PARPi-resistant BRCA-mutant ovarian cancer cell lines. (AID 1963452); details: PEO1/OlaR viability, CellTiter-Glo luminescence, 96 h
# How it was run: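 PEO1, PEO4 and PEO1/OlaR ovarian cancer cells, 600 per well, exposed 96 h at 37C to a dilution series. Viability read by CellTiter-Glo luminescence, normalized to DMSO and empty wells; activity summarized as Z-AUC.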
# [12] = qHTS Assay for Inhibitors of PDE-IV (AID 607); details: HEK293 ACTOne CNG channel cells, membrane potential fluorescence; measured here: parental cell counter-screen;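 also: parental cells stimulated with forskolin 10 µM plus RO 20-1724 100 µM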
# How it was run: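 The readout is membrane depolarisation from a cAMP-sensing CNG channel, detected with a potential dye at ex 535/em 590. Cells were HEK293-derived (endogenous PDE-IV) at 1000 cells/well, titrated up to 22.9 uM final.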
# [13] = qHTS for identification of novel therapeutic agents for treatment of microphthalmiaassociated transcription factor (MiT) renal cell carcinoma (RCC) (AID 1963991); details: CellTiter-Glo, 48 h; for z-score: stronger effect = lower value;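 as to z-score: curves scaled with 100% = DMSO viability and 0% = empty wells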
# How it was run: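 UOK109/UOK124/UOK145 (TFE3 fusions, three partners); 500 cells/well; MIPE v4.0, 1912 cpds, 11 conc.; 48 h, 37 C; CellTiter-Glo, 15 min RT; lum. Norm.: DMSO 100%, empty 0%.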
# [14] = target: Phenylethanolamine N-methyltransferase (Homo sapiens) (UniProt P11086); assay: Confirmatory Screen for Target Class Profiling of Small Molecule Inhibitors of Methyltransferases (AID 1745852); details: MTase-Glo luminescence, SAH detection, recombinant enzyme; measured here: PNMT inhibition potency;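 also: inhibitor potency for blocking SAH production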
# Sequence of UniProt P11086 (P11086 whole entry, looked up): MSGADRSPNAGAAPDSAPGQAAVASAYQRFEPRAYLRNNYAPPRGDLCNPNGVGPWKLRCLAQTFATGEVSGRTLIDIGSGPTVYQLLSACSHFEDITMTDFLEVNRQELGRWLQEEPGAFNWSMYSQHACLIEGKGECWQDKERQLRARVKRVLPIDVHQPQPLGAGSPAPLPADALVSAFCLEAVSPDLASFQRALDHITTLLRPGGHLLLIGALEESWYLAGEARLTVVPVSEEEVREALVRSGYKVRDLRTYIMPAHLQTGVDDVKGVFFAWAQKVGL
# [15] = qHTS Assay for Modulators of Human Peripheral Myelin Protein 22 (PMP22) Expression/Activity (AID 1967); details: Cell-based PMP22 reporter, dual-color luciferase ratio
# How it was run: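 Quantitative HTS in a mouse Schwann cell line expressing dual click beetle luciferases: Pmp22 promoter (green) and control EF-alpha promoter (red). After 24h treatment, corrected green/red signal ratio gave %Activity relative to untreated cells.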
# [16] = qHTS Validation Assay to Find Inhibitors of Chronic Active B-Cell Receptor Signaling (AID 485345); details: ABC-DLBCL cells, chronic BCR signaling reporter; measured here: CBG/CBR ratio read-out
# How it was run: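 TMD8 ABC-DLBCL cells stably carrying doxycycline-inducible IkappaBalpha–green luciferase fusion plus unfused red luciferase; compounds 46 uM to 3 nM, 4 h at 37C with doxycycline. Corrected green/red luminescence ratio normalized to 10 uM MG-132 and basal cell wells; curves fitted.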
# [17] = measured here: cell count channel max response
# [18] = measured here: cell number channel AC50
# [19] = measured here: lipid channel max response
# [20] = measured here: 460 nm blue channel
# [21] = measured here: lipid (BODIPY) channel AC50
# [22] = measured here: 530 nm viability channel
# [23] = measured here: red reporter channel AC50, EF-alpha promoter control reporter in MSC80 mouse Schwann cells
# [24] = measured here: green reporter channel AC50, mouse Pmp22 promoter in mouse Schwann cells
# Tags tell the direction and shape of the fitted curve.
smiles,measurement,setting,value
CC(=O)[O][Hg][c]1ccccc1,max response,[1]; [17],-71.3%
same,AC50,[1]; [18],"8.91 µM [falling, partial curve]"
same,max response,[1]; [19],-108%
same,AC50,[2]; measured here: W460 blue channel fit,"3.16 µM [falling, full curve] and 2 µM [falling, full curve]"
same,AC50,"[2]; measured here: W530 green channel, cytotoxicity/artifact","2 µM [rising, full curve]"
same,AC50,[3],"17.8 µM [falling, partial curve, poor fit]"
same,max response,[4],-71.2%
same,AC50,[5],"12.6 µM [falling, full curve]"
same,AC50,[6],"2.24 µM [falling, full curve] and 3.16 µM [falling, full curve]"
same,max response,[7],-52.2% and -56%
same,max response,[8],-30.3% and -29.8%
same,AC50,[9]; [20],"1.78 µM [falling, full curve]"
same,AC50,[10],"0.562 µM [falling, full curve, poor fit]"
NCC1(CC(=O)O)CCCCC1,max response,[1]; [17],49.4%
same,max response,[1]; [19],50%
same,AC50,[11]; measured here: PEO4 viability,"6.92 µM [rising, partial curve, poor fit]"
CSc1nc(NC(C)C)nc(NC(C)C)n1,max response,[1]; [17],25.3%
same,AC50,[1]; [21],"22.4 µM [rising, partial curve]"
same,max response,[1]; [19],34.7%
same,max response,[7],7.18%
same,max response,[8],-7.84%
C#CCN(C)[C@H](C)Cc1ccccc1,max response,[1]; [17],-15.3%
same,AC50,[1]; [21],"0.0112 µM [falling, full curve, poor fit]"
same,max response,[1]; [19],-17.2%
same,AC50,[11]; measured here: PEO1 parental viability,"8.71 µM [rising, partial curve, poor fit]"
CN(C(=O)Cc1ccccc1)[C@H](CN1CCCC1)c1ccccc1,AC50,[12],"15.8 µM [rising, partial curve]"
same,max response,[1]; [17],28.7%
same,AC50,[1]; [21],"7.94 µM [rising, partial curve, poor fit]"
same,max response,[1]; [19],30.9%
C/C(O)=C(/C#N)C(=O)Nc1cc(Br)ccc1Br,AC50,[12],"20 µM [rising, single point]"
same,max response,[1]; [17],57%
same,AC50,[1]; [18],"35.5 µM [rising, single point]"
same,max response,[1]; [19],72.5%
Oc1ccc(Cl)cc1,max response,[1]; [17],23%
same,AC50,[1]; [21],"39.8 µM [rising, single point]"
same,max response,[1]; [19],31.8%
same,AC50,[10],"35.5 µM [falling, single point]"
COc1ccc(C(=O)N2CCCC2=O)cc1,max response,[1]; [17],24.1% and 27.3%
same,AC50,[1]; [21],"31.6 µM [rising, single point] and 39.8 nM [rising, full curve, poor fit]"
same,max response,[1]; [19],36.1% and 42.1%
same,AC50,[9]; [20],"0.178 µM [falling, full curve, poor fit]"
same,AC50,[9]; [22],"0.316 µM [falling, full curve]"
same,z-score,"[13]; TFE3-RCC UOK109 viability, measured here: UOK109 Z-AUC",0.37
same,z-score,"[13]; TFE3-RCC viability, measured here: UOK124 Z-AUC",0.152
same,z-score,"[13]; TFE3-RCC viability, measured here: UOK145 Z-AUC",0.348
same,AC50,"[13]; TFE3-RCC viability, measured here: UOK145 cell viability","18.7 µM [falling, partial curve, poor fit]"
Cc1sc2ccccc2c1CC1=NCCN1,max response,[1]; [17],64.2%
same,max response,[1]; [19],61.4%
same,IC50,[14],"19.3 µM [falling, partial curve]"
C=C1CC2C(CC[C@]3(C)C(=O)CCC23)[C@]2(C)C=CC(=O)C=C12 (stereo partly specified),max response,[1]; [17],16.5%
same,AC50,[1]; [21],"1.78 µM [rising, full curve, poor fit]"
same,max response,[1]; [19],20.5%
same,AC50,[9]; [22],"0.251 µM [falling, full curve]"
CC(C)(O)C1C2OC(=O)C1[C@]1(O)C[C@H]3O[C@]34C(=O)O[C@H]2[C@]14C (stereo partly specified) (tested in a mixture with another compound),max response,[1]; [17],57.1%
same,AC50,[1]; [21],"5.62 µM [falling, full curve, poor fit]"
same,max response,[1]; [19],41.4%
same,AC50,[15]; [23],"84.9 µM [falling, single point]"
CNCCCN1c2ccccc2CCc2ccccc21,max response,[1]; [17],-14.3%
same,AC50,[1]; [18],"22.4 µM [falling, single point]"
same,max response,[1]; [19],-14.7%
same,AC50,[15]; [24],"33.8 µM [falling, full curve]"
same,AC50,[15]; [23],"23.9 µM [falling, full curve]"
COc1ccc2c(c1)[C@@]13CCCC[C@H]1[C@@H](C2)NCC3,max response,[1]; [17],46.2%
same,AC50,[1]; [21],"39.8 µM [rising, single point]"
same,max response,[1]; [19],46%
same,AC50,[15]; [24],"84.9 µM [falling, single point]"
same,AC50,[15]; [23],"84.9 µM [falling, single point]"
same,AC50,[16],"16.4 µM [falling, single point]"
COP(=S)(OC)SCn1nnc2ccccc2c1=O,max response,[1]; [17],-7.5%
same,AC50,[1]; [21],"1.41 µM [rising, partial curve]"
same,max response,[1]; [19],-4.37%
same,AC50,[5],"70.8 µM [rising, single point]"
same,max response,[7],16.3% and 22.2%
same,max response,[8],18.5% and 7.65%
CP(=O)(O)C1=CCNCC1,max response,[1]; [17],36.5%
same,max response,[1]; [19],36.7%
same,AC50,[15]; [23],"84.9 µM [falling, single point]"
CCCn1c(C)c(C(=O)c2cccc3ccccc23)c2ccccc21,AC50,[12],"15.8 µM [rising, partial curve]"
same,max response,[1]; [17],85.3%
same,AC50,[1]; [18],"12.6 µM [rising, partial curve, poor fit]"
same,max response,[1]; [19],109%
